Measurements: PubChem BioAssay AID1508624 (National Center for Advancing Translational Sciences (NCATS), 2021)
Among all 48,000 compounds or so, about 120 (0.25%) were called active. About 4% were inconclusive and are not listed. The call rests on the fitted dose curve; in most records, active means well fitted activation curve with a large enough effect; inconclusive means small, poorly fitted or top-dose-only effect, or another doubt; inactive means no such curve, though single readings can be large or run the other way. The list shows a part of the results, in another mix than the full data. The source gives no active or inactive call for entries shown without one.

Test: Primary qHTS for Identification of Small Molecule Activators of Huntingtin-Antisense Promoter Activity; further: nearly all actives have a fitted effect of over 55% in size
Settings: HEK293 HTT-AS promoter firefly luciferase reporter, 24 h; activity change, positive = activation: at 57.5 µM (top of the series), percent change from vehicle, -100% = no light
Procedure, shortened: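 HEK293 Fluc reporter, 2,500 cells/well, 24 h pre-culture; cpds up to 57.5 uM final, 24 h 37 degrees C; Dual-Glo, 10 min RT; normalized vehicle = 0%, zero RLU = -100%.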
Potency means the concentration at half of the fitted maximal effect.

SMILES | activity change, positive = activation | Potency
CNC(=O)c1ccc(Nc2nnc(-c3ccc(C)c(S(=O)(=O)N4CCCCC4)c3)c3ccccc23)cc1 | -9.24% | 
O=C1OC(C(=O)Nc2ccc(Cl)c(C(F)(F)F)c2)Cc2ccccc21 (stereo unspecified) | -14.7% | 
COc1ccc(N2CCN(c3nc4ccc(C)cc4n4nnnc34)CC2)cc1 | 2.11% | 
COc1ccc2c(c1)cc1c(=O)n(CC(=O)NCCCc3ccccc3)nc(C)n12 | -5.14% | 
COc1ccc(CCNC(=O)CCc2c(C)c3cc4c(C)coc4c(C)c3oc2=O)cc1OC | inactive: -16.2% | 
CCOC(=O)C1CCCN(CCC(=O)Nc2cccc(C)c2)C1 (stereo unspecified) | -12% | 
COc1ccc(C2=C(Nc3ccc(C)c(C)c3)c3ccccc3C2=O)cc1 | -22.5% | 
COc1cc(NC(=O)c2cc3ccccn3n2)cc(OC)c1OC | 22.5% | 
Cc1nc2ccn(Cc3ccco3)c(=O)c2cc1C(=O)N1CCN(c2ccccc2)CC1 | -1.77% | 
O=C(c1cc(-c2ccc(O)cc2)on1)N1CCN(c2ccccc2)CC1 | -7.07% | 
COc1ccc(CN2COc3ccc4c(-c5ccccc5)cc(=O)oc4c3C2)cc1OC | -22% | 
Cn1c(=O)n(C)c2cc(N3CCCCC3)c(NC(=O)c3ccc(C(C)(C)C)cc3)cc21 | 3.86% | 
O=C(NCC1CN(c2ccc(N3CCOCC3=O)cc2)C(=O)O1)c1ccc(Cl)s1 (stereo unspecified) |  | inactive
CCOc1cc(CNC(=O)Cn2c(-c3cccs3)cc3cc(F)ccc32)ccc1OC | inactive: -29.4% | 
COc1ccc(S(=O)(=O)Nc2cc3c(cc2NCc2ccccc2)n(C)c(=O)n3C)cc1 | 35.2% | 
Cn1nnnc1SCCCNCc1cccc(OCc2ccccc2Cl)c1 | inactive: -10.7% | 
COc1ccc(C2C(=O)N(C3CCC(C)CC3)CC(=O)N2CCC2=CCCCC2)cc1OC (stereo unspecified) | -7.15% | 
Cc1cc(Cl)ccc1NS(=O)(=O)c1ccc2c(c1)CC(C)N2C(=O)C1CCC1 (stereo unspecified) | -43.2% | 
COc1cccc(N2CCN(C(=O)c3cc4c(=O)n(Cc5ccco5)ccc4nc3C)CC2)c1 | -10.6% | 
O=C(C1CCN(S(=O)(=O)Cc2ccccc2)CC1)N1CCN(c2cccc(Cl)c2)CC1 | 1.07% | 
CN(Cc1ccco1)S(=O)(=O)c1nnc(NC(=O)c2cccc(Cl)c2)s1 | inactive: -8.37% | 

SMILES | activity change, positive = activation | Potency
Cc1ccc(NC(=O)c2c(C)oc3ccc(O)c(CN4CCCCC4)c23)c(C)c1 | -29.4% | 
COc1ccc(NC(=O)c2c(C)oc3ccc(O)c(CN4CCOCC4)c23)cc1 | 10.6% | 
COc1cccc(CNC(=O)CCS(=O)(=O)c2ccc3c(c2)CC(C)N3C(=O)C2CC2)c1 (stereo unspecified) | -17% | 
Cc1ccc(C)c(Nc2nnc(-c3ccc(C)c(S(=O)(=O)N4CCCCC4)c3)c3ccccc23)c1 | -27.7% | 
O=C(NCCc1ccccc1)c1cc(-c2ccc(Cl)c(Cl)c2)on1 | -5.05% | 
Cc1c(CC(=O)NCc2ccccc2Cl)c(=O)oc2cc(O)ccc12 | 3.03% | 
COc1ccc(-c2cc(C(=O)Nc3c(C)n(C)n(-c4ccccc4)c3=O)no2)cc1 | -4.4% | 
O=C(NCCCc1nc2ccccc2n1Cc1ccccc1F)c1ccco1 | -21.5% | 
COc1ccccc1Nc1nn2c(=O)c3ccc(C(=O)NCCc4ccccc4)cc3nc2s1 | inactive: -73.3% | 
COc1ccc(S(=O)(=O)Nc2cccc(-c3ccc(N4CCCC4)nn3)c2)cc1F | 5.81% | 
COc1cccc(N2CCN(C(=O)c3ccc4nc(N5CCC(C)CC5)sc4c3)CC2)c1 | inactive: -63.7% | 
O=C(NCc1cccc(Br)c1)C1CCCCN1S(=O)(=O)c1ccc(F)cc1 (stereo unspecified) | -9.82% | 
COCC(=O)NCC=Cc1ccc2ncnc(Nc3ccc(Oc4ccc(C)nc4)c(C)c3)c2c1 | inactive: -26.3% | 
COC(=O)CN1C(=O)CSc2ccc(S(=O)(=O)Nc3ccc(C)c(Cl)c3)cc21 | -13.3% | 
CNC(=O)c1cnc2sc(N3CCC(C)CC3)nn2c1=O | 52.6% | 
COc1ccc(OC)c(-c2cc(C(=O)Nc3c(C)nn(Cc4ccc(C)cc4)c3C)no2)c1 | -9.75% | 
Cc1ccccc1CNC(=O)C1CCCCN1S(=O)(=O)c1ccc(F)cc1 (stereo unspecified) | -6.37% | 
Cc1ccc(NC(=O)c2c(C)oc3ccc(O)c(CN4CCN(Cc5ccccc5)CC4)c23)cc1 | -23.9% | 
CCOC(=O)c1cccc(NC(=O)CCc2c(C)nn(-c3ccc(N4CCCCC4)nn3)c2C)c1 | 3.77% | 
COc1ccc(S(=O)(=O)Nc2cccc(-c3ccc(N4CCCCCC4)nn3)c2)cc1OC | 16% | 
CCOc1ccc(CNC(=O)c2ccc(NC(=O)N3CCCCc4ccccc43)cc2)cc1 | inactive: -5.94% | 

SMILES | activity change, positive = activation | Potency
Cc1ccc(OCCCCn2c(-c3ccc(Cl)cc3)nc3ccccc3c2=O)cc1 | -0.97% | 
CCC(C)NC(=O)c1cc(-c2cccc(OC)c2)on1 (stereo unspecified) | 88% | 
Cc1ccc(S(=O)(=O)Nc2cc3c(cc2NCc2ccccc2)n(C)c(=O)n3C)c(C)c1 | 39.7% | 
CCc1ccc(CNC(=O)c2ccc(-c3nc(CS(=O)(=O)c4ccccc4)c(C)o3)cc2)cc1 | -14.6% | 
Cc1ccc(C(=O)NCC(c2cccs2)S(=O)(=O)c2cccs2)cc1 (stereo unspecified) | inactive: -35.8% | 
COC(=O)CN1C(=O)CSc2ccc(S(=O)(=O)N3CCOCC3)cc21 | 7.61% | 
O=C1C(=O)N(C2CCN(S(=O)(=O)c3ccc(F)cc3)CC2)CCN1Cc1ccccc1 | 7.07% | 
CCc1ccccc1NC(=O)CSc1nnc(-c2cc(OC)c(OC)c(OC)c2)o1 | 2.34% | 
COc1ccc(CNC(=O)c2cc3ccccn3n2)c(OC)c1 | 2.81% | 
CCCCOc1ccc(CNC(=O)Cn2ncn3c(cc4cc(F)ccc43)c2=O)cc1 | -4.72% | 
COc1ccc(N2CCN(S(=O)(=O)c3c(C)nc4scc(C)n4c3=O)CC2)cc1 | -27.4% | 
CCOC(=O)c1cccc(NC(=O)CC2C(=O)N(c3ccc(F)cc3)C(=O)N2C(C)C)c1 (stereo unspecified) | -7.29% | 
Cc1ccc(-c2nc3ncccc3o2)cc1NC(=O)COc1ccc(C(C)C)cc1 | -27.6% | 
COc1ccc(C)cc1NS(=O)(=O)c1ccc2c(c1)[C@H]1C=CC[C@H]1[C@@H](c1cccc(Cl)c1)N2 | -17.2% | 
CCCS(=O)(=O)N1CCC(N2CCN(Cc3ccc(C)cc3)C(=O)C2=O)CC1 | 3.89% | 
Cc1cc(=O)[nH]c2nnc(SCC(=O)Nc3cc(C(F)(F)F)ccc3Cl)n12 | inactive: -19.5% | 
Cc1cccc(NC(=O)CSc2nnc(-c3cccs3)o2)c1 |  | active: 25.1 µM
COc1ccc(C(=O)NCC(c2ccco2)S(=O)(=O)c2ccccc2)cc1 (stereo unspecified) | inactive: -0.317% | 
CCOC(=O)c1cccc(NC(=O)CC2C(=O)N(c3ccc(Cl)cc3)C(=O)N2C2CCCC2)c1 (stereo unspecified) | -46.6% | 
